Source: PubChem BioAssay AID1347071 (National Center for Advancing Translational Sciences (NCATS), 2019)
The whole screen tested about 410,000 compounds, of which about 260 (0.063%) were called active. This list was built around the results that the source calls inconclusive (neither active nor inactive); the mix of calls is not that of the screen. Calls follow the shape of the dose curve; as a rule, active = well fitted activation curve with a large enough effect; inconclusive = small, poorly fitted or top-dose-only effect; inactive = no such curve, though single readings can be large or run the other way. Potencies of inconclusive entries are left out as doubtful fits.
Potency is read from the fitted curve at half-maximal effect; tags tell the direction and shape of the fitted curve.

Experiment: qHTS for compounds that reverse cellular toxicity of Amyloid beta (A-beta) peptide in yeast: Primary Screen; also: nearly all actives have a fitted effect of over 55% in size
Conditions: yeast expressing A-beta42, growth rescue, OD600, 48 h; growth rescue: at 46.1 µM (top of the series), 0% DMSO, 100% iron-clioquinol control
In short: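 Yeast A-beta toxicity model in growth medium with pinned compounds, 48 h at 30 C; growth read as absorbance at 600 nm. Normalized to FeCl3/clioquinol equimolar mix (positive) and DMSO (negative).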
With `COc1ccc(-c2cc(CCC(=O)N3CCN(c4cc(C)ccc4C)CC3)[nH]n2)cc1` the Potency was inconclusive [activator, single point].
With `COc1cccc(-n2c(C)nc3c(cnn3-c3ccc(C)cc3)c2=O)c1` the Potency was inconclusive [activator, full curve, poor fit].
In the case of `CC(C)(C)OC(=O)Nc1ccccc1-n1nnnc1C(C(=O)c1ccc(F)cc1)N1CCN(c2ccccn2)CC1` (stereo not drawn), the Potency is reported as inconclusive [activator, full curve].
With `O=c1[nH]c2cc3c(cc2cc1CN(CCc1ccccc1)Cc1nnnn1CC1CCCO1)OCO3` (stereo not drawn) the Potency was “inactive”.
With `COCCNC(=O)CN1CCC(NC(=O)c2ccco2)CC1` the Potency was “inactive”.
With `COc1ccc(C(=O)NC(=S)N(Cc2ccccc2)Cc2ccccc2)cc1` the Potency was inconclusive [activator, partial curve, poor fit].
For `CCc1ccccc1NC(=S)N1CCC(C(=O)c2ccc(F)cc2)CC1`, the Potency was inconclusive [activator, partial curve].
With `CCCNS(=O)(=O)c1cc(-c2nnc3c4ccccc4c(C)nn23)ccc1OC` the Potency was “inactive”.
With `Cc1ccc(Nc2ccc([N+](=O)[O-])cn2)cc1Cl` the Potency was “inactive”.
With `CCn1c(SCC(=O)NCCOC)nc2sc3c(c2c1=O)CCCC3` the Potency was “inactive”.
For `COc1cc(NC(=O)CSc2nnc3ccccn23)cc(OC)c1OC`, the Potency was “inactive”.
In the case of `CC(C)c1cc(C(N)=O)c(NC(=O)c2cccc(COc3ccc(Cl)cc3)c2)s1`, the Potency is reported as inconclusive [activator, partial curve].
For `COc1cccc(C(C)(O)c2nc(-c3ccc(N(C)C)cc3)cs2)c1` (stereo not drawn), the Potency was inconclusive [activator, partial curve].
For `O=S(=O)(NCC1COc2ccccc2O1)c1ccc2ccccc2c1` (stereo not drawn), the Potency was inconclusive [activator, single point].
In the case of `O=C(CN1CCN(c2cccc(Cl)c2)CC1)NC1CCCc2ccccc21` (stereo not drawn), the Potency is reported as inconclusive [activator, partial curve].
In the case of `Cc1ccccc1Cn1c(SCc2ccc(C(=O)NCCc3ccccc3)cc2)nc2ccncc21`, the Potency is reported as “inactive”.
In the case of `Cc1ccc(-c2cn(-c3ccccc3)c(=S)[nH]2)cc1C`, the Potency is reported as inconclusive [activator, partial curve, poor fit].
In the case of `COc1ccc(-c2cc(C3CCN(C(=O)OC(C)(C)C)CC3)[nH]n2)cc1`, the Potency is reported as inconclusive [activator, partial curve].
For `CCc1cccc(C)c1NS(=O)(=O)c1cc(Br)cnc1N`, the Potency was inconclusive [activator, partial curve].
For `COC(=O)c1ccc(COC(=O)CNC(=O)c2ccc(C)s2)cc1`, the Potency was “inactive”.
For `CCc1ccc(NC(=O)c2ccnc(C(C)(C)C)c2)cc1`, the Potency was inconclusive [activator, full curve].
For `CC(=O)Nc1c(C)nn(-c2ccccc2)c1N1CCC(C(=O)Nc2cccc(C(F)(F)F)c2)CC1`, the Potency was inconclusive [activator, single point].
With `CSc1ccc(C(c2c(C(=O)O)[nH]c3ccccc23)c2c(C(=O)O)[nH]c3ccccc23)cc1` the Potency was inconclusive [activator, partial curve, poor fit].
In the case of `O=c1[nH]c2ccc([N+](=O)[O-])cc2nc1/C=C(\O)c1ccccc1`, the Potency is reported as “inactive”.
With `C/C(=N\NC(N)=S)C1C2C3CC4C5CC(C42)C1C53` (stereo not drawn) the Potency was inconclusive [activator, single point].
With `COc1ccc(/C=C2/C(=O)N(Cc3ccccc3)N=C2C)cc1` the Potency was inconclusive [activator, full curve].
For `C=CCn1c(-c2cc(-c3ccc(C)cc3)nc3ccccc23)n[nH]c1=S`, the Potency was inconclusive [activator, partial curve, poor fit].
For `CCCc1c(C)c2ccc(OCC(C)=O)cc2oc1=O`, the Potency was inconclusive [activator, single point].
With `Cc1ccc(C(=O)CC2(O)C(=O)N(Cc3ccccc3)c3ccccc32)c(C)c1` (stereo not drawn) the Potency was inconclusive [activator, full curve].
With `CC(C)c1cc(Br)ccc1OCCN1C(=O)NC(C)(C)C1=O` the Potency was inconclusive [activator, partial curve].
In the case of `COc1ccc(/C=C/C(=O)OCCNC(=O)c2ccncc2)cc1OC`, the growth rescue is reported as inconclusive: 61.1% [activator].
With `CCOC(=O)/C(C#N)=C1\C(=O)N(Cc2ccccc2)c2ccccc21` the Potency was inconclusive [activator, partial curve, poor fit].
In the case of `O=C(CN1CCN(S(=O)(=O)c2ccc(F)cc2)CC1)Nc1ccc(Cl)c(C(F)(F)F)c1`, the Potency is reported as inconclusive [activator, partial curve, poor fit].
In the case of `FC(F)C(F)(F)c1cc(-c2ccc(Cl)cc2)n[nH]1`, the Potency is reported as inconclusive [activator, single point].
With `CC[C@]12c3[nH]c4cc(-c5ccco5)ccc4c3CCN1C(=O)[C@@H](CC(=O)NCc1cccc(C(F)(F)F)c1)C[C@@H]2C(=O)N1CCN(C(=O)C2CC2)CC1` the Potency was “inactive”.
For `CCCN(Cc1cccs1)C(=O)Nc1ccc(F)c(Cl)c1`, the Potency was inconclusive [activator, single point].
In the case of `Oc1ccc(N=Nc2ccc3c(c2)OCCO3)c2ncccc12`, the Potency is reported as inconclusive [activator, single point].
For `Cc1ccc(CN2C(=O)C(CC(C)C)Nc3ncnc(N4CCCCC4)c32)cc1` (stereo not drawn), the Potency was inconclusive [activator, single point].
In the case of `Cc1ccnc(NC(=O)CNC(=O)C23CC4CC(CC(C4)C2)C3)c1`, the Potency is reported as inconclusive [activator, full curve, poor fit].
For `CCOC(=O)c1nc(C)nc(Sc2n[nH]c(-c3ccc(C(C)(C)C)cc3)n2)c1C`, the Potency was inconclusive [activator, single point].
In the case of `COc1ccccc1N1CCN(C(=O)c2cc(C3CC3)on2)CC1`, the Potency is reported as “inactive”.
With `COCn1c(C(O)c2ccccc2)cc2ccccc21` (stereo not drawn) the Potency was inconclusive [activator, single point].
With `Cc1ccc(NC(=O)c2cc([N+](=O)[O-])ccc2N2CCOCC2)cc1S(=O)(=O)N(C)C` the Potency was inconclusive [activator, single point].
For `O=S(=O)(c1ccc(Cl)cc1)N1CCCc2ccccc21`, the Potency was “inactive”.
For `Cc1n[nH]c(C)c1Cc1c(F)cccc1Cl`, the Potency was inconclusive [activator, partial curve, poor fit].
For `C=CCSc1nnc(NC(=O)C2CSC3(C)CCC(=O)N23)s1` (stereo not drawn), the Potency was inconclusive [activator, partial curve, poor fit].
In the case of `Cc1c(C(=O)Nc2ccc(F)cc2)nnn1-c1cccc(C(F)(F)F)c1`, the Potency is reported as “inactive”.
With `COC(=O)Cc1ccc(NC(=S)NCCSc2ccc(C)cc2)cc1` the Potency was inconclusive [activator, full curve, poor fit].
In the case of `Cc1cc(C)c(C(=O)COC(=O)CNC(=O)c2ccccc2C)c(C)c1`, the Potency is reported as inconclusive [activator, partial curve].
With `CCc1nc2ccc(C(=O)NCCCN3CCCC3=O)cn2c1N(CC)Cc1cccc(Br)c1` the growth rescue was inconclusive: -50.7% [activator].
With `COCc1nnc(NC(=O)C2CC(=O)N(C3CCCCC3)C2)s1` (stereo not drawn) the Potency was inconclusive [activator, partial curve, poor fit].
In the case of `O=C(NC1CCc2ccccc21)c1cc(COc2cncc(Cl)c2)on1` (stereo not drawn), the Potency is reported as inconclusive [activator, partial curve, poor fit].
For `Cc1cccc(/C(N)=N/OC(=O)c2ccc3c(c2)OCO3)c1`, the Potency was “inactive”.
With `CC(=O)c1cccc(NC(=O)CSc2ccc(-c3ccccn3)nn2)c1` the Potency was inconclusive [activator, single point].
In the case of `COc1ccc(S(=O)(=O)Nc2cccc(-c3ccc(N4CCCCCC4)nn3)c2)cc1`, the Potency is reported as “inactive”.
In the case of `O=C(CN1CCN(S(=O)(=O)c2ccccc2)CC1)NCc1ccccc1`, the Potency is reported as inconclusive [activator, partial curve, poor fit].
For `COc1ccc(CNC(=S)Nc2cccc(F)c2)cc1`, the Potency was inconclusive [activator, single point].
For `CC(C)(C)NC(=S)NC(C)(C)C`, the Potency was inconclusive [activator, single point].
For `COc1ccc(C2C=C(C34CC5CC(CC(C5)C3)C4)NC(=S)N2)cc1` (stereo not drawn), the Potency was inconclusive [activator, partial curve, poor fit].
For `Cc1cc(SCC(=O)O)nc2ccccc12`, the Potency was “inactive”.
In the case of `Cc1cc(C(=O)CSc2nnc(C3CC3)n2C2CC2)c(C)n1C(C)C`, the Potency is reported as inconclusive [activator, partial curve, poor fit].
For `Cc1cc(C)c(C)c(S(=O)(=O)NC2CCCCC2)c1C`, the Potency was inconclusive [activator, partial curve, poor fit].
With `CC(C)c1nnc(NC(=O)CCC(=O)N2CCN(Cc3ccccc3)CC2)s1` the Potency was “inactive”.
For `CC(Oc1ccc(F)cc1)C(=O)Nc1cc(-c2ccc(F)c(F)c2)no1` (stereo not drawn), the Potency was inconclusive [activator, partial curve].
With `O=C(Nc1ccc(Cl)c(Cl)c1)Nc1ccon1` the Potency was “inactive”.
For `Cc1ccc(CNS(=O)(=O)c2ccc(Cl)s2)cc1`, the Potency was “inactive”.
For `CN(Cc1ccccc1)C(=O)CCn1c(=O)oc2ccccc21`, the Potency was “inactive”.
For `CC(C)(C)c1ccc(C(=O)Nc2cccnc2)cc1`, the Potency was “inactive”.
